Laboratory results taken from PubChem BioAssay AID1461 (National Center for Advancing Translational Sciences (NCATS), 2008).
Screen size: about 220,000 compounds; about 2,300 (1%) were called active. The shares of active, inactive and inconclusive entries below differ from those in the screen. Calls follow the shape of the dose curve; as a rule, active = well fitted inhibition curve with a large enough effect; inconclusive = small, poorly fitted or top-dose-only effect, or effect the other way; inactive = no such curve, though single readings can be large or run the other way. Potencies of inconclusive entries are left out as doubtful fits.

biological target: Neuropeptide S receptor (Homo sapiens) (UniProt Q6W5P4); assay: qHTS Assay for Antagonists of the Neuropeptide S Receptor: cAMP Signal Transduction; settings: CHO-NPSR cells, cAMP TR-FRET, antagonist mode; series mostly up to 38.3 µM; also: nearly all actives have a fitted effect of over 50% in size
Potency is read from the fitted curve at half-maximal effect; tags tell the direction and shape of the fitted curve.

Sequence of UniProt Q6W5P4 (Q6W5P4 whole entry, looked up): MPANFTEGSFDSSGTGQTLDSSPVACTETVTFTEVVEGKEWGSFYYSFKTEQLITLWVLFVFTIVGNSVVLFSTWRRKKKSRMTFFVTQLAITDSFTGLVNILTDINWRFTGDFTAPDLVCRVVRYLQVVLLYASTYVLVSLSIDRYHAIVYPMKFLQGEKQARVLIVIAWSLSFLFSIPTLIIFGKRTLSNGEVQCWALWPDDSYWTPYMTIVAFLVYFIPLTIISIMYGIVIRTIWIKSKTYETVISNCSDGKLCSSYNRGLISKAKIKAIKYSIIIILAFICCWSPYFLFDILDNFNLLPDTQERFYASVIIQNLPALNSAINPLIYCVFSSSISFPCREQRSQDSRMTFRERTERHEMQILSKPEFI

Structure (SMILES)	Potency
C=CCn1c(O)c(C(CC)=NCc2cc(OC)cc(OC)c2)c(=O)[nH]c1=O	inactive
CCCC1(CCC)C(=O)NC(=NCc2ccccc2)NC1=O	inconclusive [inhibitor, single point]
O=C(CCn1c(=O)oc2ccccc21)N1CCN(C(c2ccccc2)c2ccccc2)CC1	inconclusive [inhibitor, partial curve, poor fit]
CCC(C)c1ccc(N2C(=O)NC(=O)/C(=C/c3cccn3CCOc3ccc(C)cc3)C2=O)cc1 (stereo not given)	inconclusive [inhibitor, single point]
CCC1(CC)C(=O)N(Cc2ccccc2)C(=O)N(Cc2ccccc2)C1=O	inconclusive [inhibitor, single point]
CN1C[C@H](C(=O)N[C@]2(C)O[C@@]3(O)C4CCCN4C(=O)[C@H](Cc4ccccc4)N3C2=O)C[C@@H]2c3cccc4[nH]cc(c34)C[C@H]21 (stereo not given in full)	inconclusive [inhibitor, partial curve]
CN1C(=O)NC(c2cccc(O)c2)C(C(=O)c2cccs2)C1(O)C(F)(F)F (stereo not given)	inconclusive [inhibitor, single point]
O=C(c1ccco1)c1cn(Cc2ccccc2Cl)c2ccccc12	active: 10 µM
CN1CCC(N(C)c2nc(-c3ccc([N+](=O)[O-])cc3)nc3ccccc23)CC1	inconclusive [activator, single point]
Cc1cccc2c1=NC(=O)/C(=C/c1c(O)[nH]c(=O)[nH]c1=O)C=2	inactive
CCc1ccc(-n2c(O)c(/C=N/N3CCCCC3c3cccnc3)c(=O)[nH]c2=O)cc1 (stereo not given)	inactive
OC(c1cccc(Cl)c1)(c1cccc(Cl)c1)C1CN2CCC1CC2 (stereo not given)	inconclusive [activator, single point]
COc1cc(/C=C(/C)[N+](=O)[O-])ccc1OCc1ccccc1Cl	inconclusive [inhibitor, single point]
CNCCc1ccc(O)c(O)c1	inconclusive [inhibitor, single point]
O=C(CCCCCn1c(=S)[nH]c2ccccc2c1=O)N1CCC2(CC1)OCCO2	inconclusive [inhibitor, single point]
CN(C)P(=S)(Nc1ccccc1)C(Cl)(Cl)Cl (stereo not given)	inconclusive [inhibitor, single point]
CCOC(=O)c1ccc(N2C(=O)CC(N3CC=C(c4ccc(F)cc4)CC3)C2=O)cc1 (stereo not given)	inactive
CN1C(=O)C(Cc2nc3ccccc3c(=O)n2-c2ccccc2)c2ccccc21 (stereo not given)	inconclusive [inhibitor, single point]
CC(Cc1ccc(O)cc1)NCC(O)c1cc(O)cc(O)c1 (stereo not given)	inconclusive [inhibitor, single point]
O=c1[nH]c(O)c(N=Nc2cc([N+](=O)[O-])ccc2O)c(=O)[nH]1	inactive
N#CC(=Cc1ccc(O)c(O)c1)C(N)=S	inconclusive [inhibitor, partial curve]
Oc1ccccc1/C=N/NP(=S)(c1ccccc1)c1ccccc1	inconclusive [inhibitor, single point]

Structure (SMILES)	Potency
OC(CNC1CCCCC1)C(F)(F)F (stereo not given)	inactive
Cc1onc(-c2ccccc2Cl)c1C(=O)OCC(=O)c1ccc2c(c1)OCCO2	inconclusive [inhibitor, single point]
CC(C)c1ccc(N2C(=O)NC(=O)/C(=C\C=C\c3ccco3)C2=O)cc1	active: 3.98 µM
C/C1=C\[C@@H](C)C/C=C/[C@H]2[C@@H]3O[C@]3(C)[C@@H](C)[C@H]3[C@H](Cc4c[nH]c5ccccc45)NC(=O)[C@]32C(=O)/C=C/C(=O)[C@@H]1O	inconclusive [activator, single point]
Cc1ccc(-n2nc(C)c(C3C(C#N)=C(N)Oc4c3c(=O)oc3ccccc43)c2Cl)cc1 (stereo not given)	inconclusive [inhibitor, single point]
Cc1ccc(NC(=O)CN2C(=O)CN=C(c3ccccc3)c3cc(Cl)ccc32)cc1	inconclusive [inhibitor, single point]
Cc1ccc2c(c1)C1CN(C)CCC1N2C(=O)CCCN1C(=O)c2cccc3cccc(c23)C1=O (stereo not given)	inconclusive [activator, single point]
CN(C)c1ccc(/C=C/c2cc[n+](C)c3ccccc23)cc1	active: 6.31 µM
CC(C)[C@H]1C(=O)O[C@H](C(C)C)C(=O)N(C)[C@@H](C(C)C)C(=O)O[C@H](C(C)C)C(=O)N(C)[C@@H](C(C)C)C(=O)O[C@H](C(C)C)C(=O)N1C	inconclusive [activator, partial curve]
O=C(O)CCn1cc(C=C2C(=O)NC(=O)NC2=O)c(-c2ccc(Br)cc2)n1	inactive
CCOc1ccc(-n2nc3c(=S)[nH]nc(C)c3c2C)cc1	active: 6.31 µM
O=C1NC(=O)N(c2ccccc2)C(=O)/C1=C\C=C\c1ccccc1	inconclusive [activator, single point]
C/C=C(/C)C(=O)O[C@H]1C(C)=C2C([C@@H]1OC(=O)CCCCCCC)[C@@](C)(OC(C)=O)C[C@@H](OC(=O)CCC)[C@@]1(O)[C@H]2OC(=O)[C@@]1(C)O (stereo not given in full)	inconclusive [inhibitor, partial curve]
COc1ccc(N2C(=O)/C(=C/c3cccs3)C(=O)NC2=S)cc1	inconclusive [inhibitor, single point]
C=C1C(=O)O[C@@H]2C[C@@H](C)[C@@H]3C4OC4C(=O)[C@@]3(C)[C@@H](O)[C@H]12 (stereo not given in full)	inactive
Cc1cc(C)n(-c2ccc(NN=C(C#N)C#N)cc2)n1	inconclusive [activator, partial curve]
CCCOC(=O)c1c(N)n(Cc2cccs2)c2nc3ccccc3nc12	inconclusive [inhibitor, single point]
CC1N(C)c2cc(NC(=O)c3ccco3)c(P(=O)(Nc3ccc([N+](=O)[O-])cc3)N3CCOCC3)cc2C1(C)C (stereo not given)	inconclusive [inhibitor, single point]
C=CCN1C(=O)NC(=O)/C(=C/c2cnc(SC)nc2)C1=O	inconclusive [inhibitor, single point]
Cc1cc(NC(=O)CCl)no1	inactive
CC(C)CNC(=O)c1c(N)n(Cc2ccc3c(c2)OCO3)c2nc3ccccc3nc12	active: 3.16 µM
COc1cccc(C2CC3C(=O)C=CC2N3Cc2ccccc2)c1 (stereo not given)	inactive

Structure (SMILES)	Potency
Cc1ccc(-n2c(O)c(/C=N/c3ncc(Br)cc3Br)c(=O)[nH]c2=O)cc1	inconclusive [inhibitor, single point]
CCN(C(=O)CSc1ncccc1C(=O)Oc1cccc([N+](=O)[O-])c1)c1cccc(C)c1	inconclusive [inhibitor, partial curve]
COc1ccc(CN2C(=O)NC(=O)/C(=C/c3ccc(OC)c(OC)c3OC)C2=O)cc1	inactive
COc1ccc(C(=O)C2CCCN(Cc3ccc(C)s3)C2)c(OC)c1 (stereo not given)	inactive
CCn1cc(C(=O)N2CCOCC2)c2ccccc21	inactive
COc1ccc(OC)c(N2C(=O)NC(=O)/C(=C/c3ccc([N+](=O)[O-])s3)C2=O)c1	inconclusive [inhibitor, single point]
c1ccc2c(c1)Sc1ccccc1N2CC1CN2CCC1CC2 (stereo not given)	inconclusive [activator, single point]
CCC(=NCc1cc(OC)cc(OC)c1)c1c(O)n(C2CCCCC2)c(=O)[nH]c1=O	inconclusive [activator, partial curve]
Cc1c(C(=O)NCCC2=CCCCC2)oc2ccc(S(=O)(=O)N3CCC4(CC3)OCCO4)cc12	inconclusive [inhibitor, single point]
Cc1ccc(Cn2nnnc2CN2CCC(n3nnc4cc(C)ccc43)CC2)cc1	inconclusive [inhibitor, partial curve]
S=C(S)N1CCCC1	inconclusive [inhibitor, partial curve]
Nc1c(C(=O)OC2CCCCC2)c2nc3ccccc3nc2n1CC1CCCO1 (stereo not given)	inconclusive [inhibitor, full curve, poor fit]
CC(C)COP(=O)(c1ccc(N(C)C)cc1)C(Nc1ccccc1)c1ccccc1 (stereo not given)	inconclusive [inhibitor, single point]
CC(C)Oc1cccc(NC(=O)c2cccn(Cc3ccc4c(c3)OC(F)(F)O4)c2=O)c1	inconclusive [inhibitor, partial curve]
O=[N+]([O-])c1ccc(Sc2nc3ccccc3o2)c([N+](=O)[O-])c1	inconclusive [inhibitor, single point]
O=c1[nH]c(=S)n(C2CC2)c(O)c1C=NCc1ccc(F)cc1	inactive
CCCOC(=O)COc1cc(C)cc2oc(=O)c3c(c12)CCC3	inconclusive [inhibitor, single point]
CCNC(=O)[C@H]1O[C@@H](n2cnc3c(N)ncnc32)[C@H](O)[C@H]1O	inactive
c1ccc(-c2cc(-c3ccccc3)[n+](-c3ccccc3)c(-c3ccccc3)c2)cc1	inconclusive [inhibitor, single point]
C=CCn1c(O)c(C(CC)=NCc2ccc3c(c2)OCO3)c(=O)[nH]c1=O	inactive
CCOC(=O)COc1ccc2c(c1)c(C(C)=O)c(C)n2Cc1ccccc1	inactive
